The whole screen tested about 270,000 compounds, of which about 620 (0.23%) were called active. Inconclusive means that the source gave no clear call. Such entries were picked first, then a sample of the others. Calls follow the shape of the dose curve; as a rule, active = well fitted inhibition curve with a large enough effect in the polarisation, with a control signal flat (not every such curve was filed as active); inconclusive = small, poorly fitted or top-dose-only effect, or effect the other way, or a change in a side signal; inactive = no such curve, though single readings can be large or run the other way; the % refers to the polarisation. Where the call is inconclusive, the potency comes from a doubtful curve fit. A note “side channel” means that the fit belongs to a control or component signal, not to the main read-out.
Biological target: Menin (Homo sapiens) (UniProt O00255)
Experiment: qHTS Assay for Inhibitors Targeting the Menin-MLL Interaction in MLL Related Leukemias: Competition With Texas Red Labeled MLL-derived Mutant Peptide; as to FP activity change, negative = inhibition: % of control where 0% means no effect
Settings: fluorescence polarization; FP activity change, negative = inhibition: at 61.6 µM (top of the series)
Potency is read from the fitted curve at half-maximal effect; tags tell the direction and shape of the fitted curve or compound fluorescence and quenching.

UniProt O00255, sequence (O00255 whole entry, looked up): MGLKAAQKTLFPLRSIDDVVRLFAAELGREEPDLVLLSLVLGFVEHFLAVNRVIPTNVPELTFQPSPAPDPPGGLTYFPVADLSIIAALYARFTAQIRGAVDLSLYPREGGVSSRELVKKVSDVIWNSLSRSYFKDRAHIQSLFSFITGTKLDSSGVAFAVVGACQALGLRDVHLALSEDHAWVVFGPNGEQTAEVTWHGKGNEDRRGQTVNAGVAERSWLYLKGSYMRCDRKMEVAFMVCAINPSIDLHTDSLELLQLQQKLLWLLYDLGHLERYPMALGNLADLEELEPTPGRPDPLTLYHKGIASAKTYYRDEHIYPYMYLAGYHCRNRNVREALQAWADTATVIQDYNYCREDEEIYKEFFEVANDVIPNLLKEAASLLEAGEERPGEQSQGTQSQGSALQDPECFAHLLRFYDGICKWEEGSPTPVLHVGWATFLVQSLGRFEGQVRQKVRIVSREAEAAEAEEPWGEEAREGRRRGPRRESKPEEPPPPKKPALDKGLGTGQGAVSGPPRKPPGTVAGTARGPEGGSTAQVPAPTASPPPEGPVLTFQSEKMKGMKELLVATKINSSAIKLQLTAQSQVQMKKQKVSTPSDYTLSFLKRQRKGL

SMILES | Potency | FP activity change, negative = inhibition
CC(=O)NC(CC(=O)Nc1nc(-c2ccc(N(C)S(C)(=O)=O)cc2)cs1)c1ccccc1 (stereo unspecified) | inconclusive: 8.91 µM [quencher, side channel, single point] | 
CCOC(=O)COc1c(OC)cc(Cl)cc1C1Nc2ccccc2C(=O)N1c1ccccc1 (stereo unspecified) |  | inactive: -12%
CCOc1ccccc1Nc1ccc(C(=O)O)cc1NC(C)=O | inconclusive: 44.7 µM [inhibitor, partial curve] | 
O=C(CSC1=N/C(=C/c2ccco2)C(=O)N1c1ccc(OC(F)F)cc1)NC1CCS(=O)(=O)C1 (stereo unspecified) | inconclusive: 14.1 µM [quencher, side channel, partial curve] | 
CN(C)c1ccc(C(=O)OCC(=O)Nc2ccc(S(N)(=O)=O)cc2)cc1 | inconclusive: 14.1 µM [quencher, side channel, single point] | 
O=c1c2ccccc2c(-c2n[nH]c(=S)o2)nn1Cc1ccccc1 | inconclusive: 14.1 µM [quencher, side channel, partial curve] | 
COc1ccc(CNc2nc(-c3ccccc3OC)nc3ccccc23)c(OC)c1 |  | inactive: -3.47%
CCC1CCCCN1CCNC(=O)CCS(=O)(=O)c1ccc(Br)cc1 (stereo unspecified) | inconclusive: 31.6 µM [inhibitor, single point] | 
COc1cccc(Nc2nnc(SCn3nnc4ccccc4c3=O)s2)c1 | inconclusive: 39.8 µM [inhibitor, single point] | 
COC(=O)c1ccc(NC(=O)Nc2ccc(F)cc2)cc1 | inconclusive: 8.91 µM [quencher, side channel, partial curve] | 
Cc1ccc(C(=O)NC(=S)NNC(=O)COc2ccc([N+](=O)[O-])cc2)cc1 | inconclusive: 31.6 µM [quencher, side channel, single point] | 
FC(F)(F)c1cccc(NC(=S)N2CCN(c3ccccn3)CC2)c1 | inconclusive: 15.8 µM [inhibitor, single point] | 
O=C(NCc1ccccc1)c1ccc(S(=O)(=O)N2CCCc3ccccc32)cc1 | inconclusive: 31.6 µM [quencher, side channel, single point] | 
CC(C)NC(=O)NC(=O)CSc1nnc(COc2ccccc2F)n1C(C)C1CC2CCC1C2 (stereo unspecified) | inconclusive: 2.82 µM [fluorescent, side channel, full curve] | 
CN1CCN(S(=O)(=O)c2ccc3[nH]c(=O)oc3c2)CC1 | inconclusive: 39.8 µM [fluorescent, side channel, single point] | 
COc1cccc(N2CCN(S(=O)(=O)c3ccc4nc(-c5ccccc5)[nH]c4c3)CC2)c1 | inconclusive: 31.6 µM [inhibitor, single point] | 
Cc1cc(/C=N/NC(=O)c2cccc(N(C)C)c2)c(C)n1-c1cc(C(=O)O)cc(C(=O)O)c1 |  | inactive: -7.28%
CN(C)CCN=Cc1c(O)n(Cc2ccccc2)c(=O)c2ccccc12 | inconclusive: 31.6 µM [quencher, side channel, single point] | 

SMILES | Potency | FP activity change, negative = inhibition
NNc1nc(Nc2ccc([N+](=O)[O-])cc2)nc(N2CCCCCC2)n1 | inconclusive: 14.1 µM [quencher, side channel, partial curve] | 
Cc1ccc(-c2cc(-c3ccc(F)cc3)n[nH]2)c(O)c1 | inconclusive: 22.4 µM [quencher, side channel, partial curve] | 
COc1ccc(OC)c(NC(=O)C2CCN(C(=O)c3cccs3)CC2)c1 | inconclusive: 39.8 µM [inhibitor, single point] | 
CCc1nc(NCc2ccccc2)c(C#N)c2c1CCCC2 | inconclusive: 12.6 µM [fluorescent, side channel, partial curve] | 
CCCCn1c(=O)c2c(nc3n2CCCN3Cc2ccccc2)n(C)c1=O | inconclusive: 0.708 µM [inhibitor, full curve, poor fit] | 
CCOC(=O)CC(=O)CSc1nnc2c(n1)[nH]c1ccccc12 | inconclusive: 17.8 µM [quencher, side channel, single point] | 
Cc1nc2c(C(=O)NCCC(C)C)c[nH]n2c(=O)c1Cl | inconclusive: 25.1 µM [quencher, side channel, single point] | 
CS(=O)(=O)c1ccccc1-c1nc(-c2cc(C(F)(F)F)cc(C(F)(F)F)c2)no1 | inconclusive: 22.4 µM [fluorescent, side channel, partial curve] | 
O=C(Nc1ccc(S(=O)(=O)NCc2ccccc2)cc1)Nc1ccc2c(c1)OCO2 | inconclusive: 39.8 µM [inhibitor, single point] | 
O=C(Nc1scc(-c2ccccc2)c1C(=O)O)c1ccco1 | inconclusive: 20 µM [quencher, side channel, partial curve] | 
Cc1cccc(Cn2c(=O)oc3ccc(C)cc32)c1 | inconclusive: 35.5 µM [fluorescent, side channel, single point] | 
ClCC1NCC(c2ccccc2Cl)c2c1[nH]c1ccccc21 (stereo unspecified) | inconclusive: 39.8 µM [quencher, side channel, single point] | 
O=C(Nc1ccc(N2CCCCC2)c(Cl)c1)c1ccc2c(c1)OCCO2 | inconclusive: 12.6 µM [quencher, side channel, partial curve] | 
CCCCCCCCOc1ccc(C2OC34CCCCC3C(C#N)(C#N)C2(C#N)C(=N)O4)cc1 (stereo unspecified) | inconclusive: 31.6 µM [inhibitor, single point] | 
O=C(NCc1ccccc1)c1cc(S(=O)(=O)N2CCOCC2)ccc1F |  | inactive: -9.94%
C=CCN1c2ccccc2[C@]23C[C@@H](C(=O)OC)N(S(=O)(=O)CCCC)C2=NC(C(=O)OC)=C(C(=O)OC)[C@H]13 |  | inactive: -18.6% [at 11.7 µM]
COc1ccccc1-c1cc(C(=O)Nc2ccccc2SC)no1 | inconclusive: 6.31 µM [quencher, side channel, partial curve] | 
CCOC(=O)C1CCN(CC(=O)Nc2c(C(=O)OC)n(C)c3cccc(C)c23)CC1 | inconclusive: 2.24 µM [fluorescent, side channel, partial curve] | 

Source: PubChem BioAssay AID1768 (National Center for Advancing Translational Sciences (NCATS), 2009)
